{"source": "PubChem BioAssay AID624418", "about": "(National Center for Advancing Translational Sciences (NCATS), 2012)", "note": "“And” between values parts separate entries of the source, which are not always exact repeats. Equal entries are not always repeated. About 530 (0.13%) of roughly 410,000 compounds were called active. Inconclusive means that the source gave no clear call. Such entries were picked first, then a sample of the others. Calls follow the shape of the dose curve; as a rule, active = well fitted inhibition curve with a large enough effect; inconclusive = small, poorly fitted or top-dose-only effect, or another doubt; inactive = no such curve, though single readings can be large or run the other way. Where the call is inconclusive, the potency comes from a doubtful curve fit. % is scaled to controls: 0 for no effect and ±100 for the full control effect; potency is read from the fitted curve at half-maximal effect."}
{"test": "qHTS of GLP-1 Receptor Inverse Agonists: Cytotox Screen", "conditions": "HEK293 cAMP-luciferase reporter cells, luminescence, 24 h; activity change, negative = inhibition: at 38.3 µM (top of the series) unless noted", "in_short": "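Compound-treated cells are incubated 24 hr at 37 deg C under 5% CO2 after a 12 hour attachment period, then luciferase detection reagent is added and luminescence is measured following 12 min at room temperature; lowered signal indicates toxicity.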"}
{"compound": "CCc1nc2ccc(C(=O)NCCCn3ccnc3)cn2c1N(C)Cc1ccc(Cl)cc1", "activity change, negative = inhibition": "inactive: 2.49%"}
{"compound": "O=C(CCl)Nc1cccc(S(=O)(=O)N2CCCCCC2)c1", "Potency": "inconclusive: 10 µM [inhibitor, partial curve, poor fit]"}
{"compound": "Cc1cccc(NC(=O)CSc2cn(CC(=O)N3CCCCCC3)c3ccccc23)c1", "activity change, negative = inhibition": "inactive: 0.793%"}
{"compound": "CCc1ccc(Sc2cc(C(=O)NCc3ccccc3OC)c3ccccc3n2)cc1", "activity change, negative = inhibition": "inactive: -6.1%"}
{"compound": "CC(NC(=S)Nc1ccccc1C(F)(F)F)C1CC2CCC1C2", "note": "(centres undefined)", "Potency": "inconclusive: 28.2 µM [inhibitor, single point]"}
{"compound": "CCOCC(=O)NCc1ccc2c(c1)cc(C)n2C", "Potency": "inconclusive: 7.94 µM [inhibitor, partial curve]"}
{"compound": "Cc1cc(C)nc(/N=C(\\N)Nc2ccc(-c3ccccc3)cc2)n1", "Potency": "inconclusive: 11.2 µM [inhibitor, partial curve, poor fit]"}
{"compound": "COc1ccc(-c2nc3cc(C)ccn3c2NCc2ccc3c(c2)OCO3)cc1", "Potency": "inconclusive: 31.6 µM [inhibitor, single point]"}
{"compound": "Cc1cc(N/N=C/c2c(O)ccc3ccccc23)nc(-c2ccccc2O)n1", "Potency": "inconclusive: 3.16 µM [inhibitor, partial curve, poor fit]"}
{"compound": "Cc1cc(NC(=O)Nc2ccccc2F)ccc1Br", "Potency": "inconclusive: 28.2 µM [inhibitor, single point]"}
{"compound": "CN[C@H]1CCc2cc(OC)c(OC)c(OC)c2-c2ccc(N(C)CC(OC)OC)c(=O)cc21", "Potency": "inconclusive: 1.26 µM [inhibitor, full curve, poor fit]"}
{"compound": "COc1ccc(/C=N\\NC(=O)c2ccccc2Br)cc1COc1c(F)c(F)cc(F)c1F", "Potency": "inconclusive: 22.4 µM [inhibitor, single point]"}
{"compound": "N=c1sccn1CC(=O)Nc1ccc([N+](=O)[O-])cc1Cl", "Potency": "inconclusive: 28.2 µM [inhibitor, single point]"}
{"compound": "O=C(CCn1cnc2ccccc21)N=Nc1c(O)[nH]c2ccccc12", "activity change, negative = inhibition": "inactive: -8.47%"}
{"compound": "CCN(c1ccccc1)S(=O)(=O)c1cc(C(=O)Nc2ccc(F)c(F)c2)ccc1F", "Potency": "inconclusive: 3.55 µM [inhibitor, partial curve]"}
{"compound": "COc1ccc(OCC(=O)NCc2ccc3c(c2)CCN3C(=O)c2ccccc2)cc1", "Potency": "inconclusive: 4.47 µM [inhibitor, partial curve, poor fit]"}
{"compound": "CC1(C(=O)Nc2ccc3c(c2)OCCO3)CN(S(C)(=O)=O)CC(=O)N1CCCN1CCOCC1", "note": "(centres undefined)", "activity change, negative = inhibition": "inactive: -16.3%"}
{"compound": "Cc1ccc(NC(=O)Cn2ccsc2=N)c([N+](=O)[O-])c1", "Potency": "inconclusive: 31.6 µM [inhibitor, partial curve, poor fit]"}
{"compound": "O=C(NCc1ccccc1)c1cc(-c2cccs2)on1", "activity change, negative = inhibition": "inactive: 4.07%"}
{"compound": "COc1cc([N+](=O)[O-])cc(/C=N/NC(=O)Cn2nccc2C)c1O", "Potency": "inconclusive: 2.24 µM [inhibitor, full curve, poor fit]"}
{"compound": "O=c1c2c3c(sc2[nH]c(=S)n1Cc1ccco1)CCC3", "activity change, negative = inhibition": "inactive: -2.45%"}
{"compound": "CCN(CC)CCCN1C=C2C(=O)C(C)(OC(=O)C3CCCC3)C(=O)C(c3ccccc3)=C2C=C1CCCC(=O)OC", "note": "(centres undefined)", "Potency": "inconclusive: 0.501 µM [inhibitor, full curve, poor fit]"}
{"compound": "O=C(OCc1ccc([N+](=O)[O-])cc1)c1ccc2ccccc2n1", "Potency": "inconclusive: 0.501 µM [inhibitor, full curve, poor fit]"}
{"compound": "Cc1ccc(NC(=O)CSc2nnnn2-c2ccc3c(c2)OCO3)cc1C", "Potency": "inconclusive: 11.2 µM [inhibitor, single point]"}
{"compound": "COc1cccc(OC)c1C(=O)Nc1sc2c(c1C(N)=O)CCCC2", "Potency": "inconclusive: 11.2 µM [inhibitor, single point]"}
{"compound": "Cc1ccc(C(=O)NC(C#N)=C(Cl)Cl)cc1", "Potency": "inconclusive: 28.2 µM [inhibitor, single point]"}
{"compound": "COc1ccc(CN(C(=O)c2snc(C(N)=O)c2N)C(C(=O)NC2CCCC2)c2cc(OC)ccc2OC)cc1", "note": "(centres undefined)", "Potency": "inconclusive: 25.1 µM [inhibitor, partial curve, poor fit]"}
{"compound": "Nc1ccccc1SSc1ccccc1N", "Potency": "inconclusive: 28.2 µM [inhibitor, single point]"}
{"compound": "CCc1nnc(NC(=O)c2nc(S(=O)(=O)Cc3ccc(C)cc3)ncc2Cl)s1", "Potency": "inactive and inconclusive: 12.6 µM [inhibitor, single point]"}
{"compound": "Cc1cc(C)n(-c2cc(N3CCN(C(=O)c4cccc(F)c4)CC3)ccc2[N+](=O)[O-])n1", "Potency": "inconclusive: 31.6 µM [inhibitor, single point]"}
{"compound": "CN(Cc1ccccc1)C(=S)NC(=O)c1ccc(-c2ccccc2)cc1", "Potency": "inconclusive: 3.98 µM [inhibitor, partial curve, poor fit]"}
{"compound": "Cc1ccc(C(=O)c2cc([N+](=O)[O-])ccc2N2CC(C)OC(C)C2)cc1", "note": "(centres undefined)", "Potency": "inconclusive: 8.91 µM [inhibitor, partial curve, poor fit]"}
{"compound": "COCCNC(=S)N=Nc1c(O)[nH]c2c(C)cc(C)cc12", "Potency": "inconclusive: 12.6 µM [inhibitor, partial curve, poor fit]"}
{"compound": "Cc1c(CN2CCc3c([nH]c4ccccc34)C2C2CCCCC2)cnn1C", "note": "(centres undefined)", "Potency": "inconclusive: 28.2 µM [inhibitor, single point]"}
{"compound": "Cc1cccc(NC(=S)NC(C)(C)CC(C)(C)C)c1", "Potency": "inconclusive: 6.31 µM [inhibitor, partial curve, poor fit]"}
{"compound": "CCc1c(C)nc(SCC(=O)CC(=O)OC(C)C)c(C#N)c1C", "activity change, negative = inhibition": "inactive: -4.81%"}
{"compound": "Cc1cccc(C)c1Nc1c(-c2ccccc2F)nc2cccc(C)n12", "activity change, negative = inhibition": "inactive: -7.43%"}
{"compound": "Cc1cccc(NC(=O)CN2CCN(CC(=O)NCc3ccc(Cl)cc3Cl)CC2)c1C", "Potency": "inconclusive: 31.6 µM [inhibitor, single point]"}
{"compound": "CC(C)C[C@H](NC(=O)c1nc[nH]c1C(=O)N(C)Cc1ccccc1)C(=O)OCc1ccccc1", "activity change, negative = inhibition": "inactive: -5.24%"}
{"compound": "Cc1c(NC(=O)CN2CCN(c3ccc(F)cc3)CC2)c(=O)n(-c2ccccc2)n1C", "Potency": "inconclusive: 28.2 µM [inhibitor, single point]"}
{"compound": "Clc1ccc(-c2nc3cnccn3c2Nc2ccc3c(c2)OCO3)cc1", "Potency": "inconclusive: 7.94 µM [inhibitor, partial curve]"}
{"compound": "Cc1ccc(CNC(=O)c2sc3nc[nH]c(=O)c3c2C)cc1", "activity change, negative = inhibition": "inactive: 3.73%"}
{"compound": "C=CCn1c(SCC(=O)NC(=O)NCc2ccco2)nc2sc(C)c(C)c2c1=O", "Potency": "inconclusive: 10 µM [inhibitor, single point]"}
{"compound": "Cc1ccc(NC(=S)NNC(=O)c2ccc(N3CCOCC3)c([N+](=O)[O-])c2)cc1C", "Potency": "inconclusive: 12.6 µM [inhibitor, partial curve, poor fit]"}
{"compound": "Cc1cc(/C=C2\\SC(=S)NC2=O)c(C)n1C", "Potency": "inconclusive: 11.2 µM [inhibitor, partial curve, poor fit]"}
{"compound": "Cc1occc1-c1nnc(SCC(=O)Nc2ccccc2)n1CCc1ccccc1", "activity change, negative = inhibition": "inactive: -14.4%"}
{"compound": "Cc1nn(C)cc1/C=C1\\SC(=S)NC1=O", "Potency": "inconclusive: 12.6 µM [inhibitor, partial curve, poor fit]"}
{"compound": "FC(F)(F)c1ccc(NC(=S)NC2CCCCC2)cc1", "Potency": "inconclusive: 20 µM [inhibitor, single point]"}
{"compound": "CCS(=O)(=O)Nc1cccc(-c2cc(-c3ccccc3)c3cc(C)ccc3n2)c1", "Potency": "inconclusive: 12.6 µM [inhibitor, single point]"}
{"compound": "Cc1cc(C)c(CN2CCC(n3nccc3NC(=O)c3ccccc3Cl)CC2)cc1C", "Potency": "inconclusive: 15.8 µM [inhibitor, single point]"}
{"compound": "Cn1nc([N+](=O)[O-])c(C(C#N)c2nc3ccccc3n2C)c(Cl)c1=O", "note": "(centres undefined)", "Potency": "inconclusive: 11.2 µM [inhibitor, partial curve, poor fit]"}
{"compound": "CCCCCC(=O)Nc1nc(C)c(-c2csc(Nc3cc(Cl)ccc3OC)n2)s1", "Potency": "inconclusive: 28.2 µM [inhibitor, single point]"}
{"compound": "CCOc1ccc(/C=C/C2=CC(C)(C)NC(=S)N2)cc1", "Potency": "active: 5.62 µM"}
{"compound": "Cn1cc(C(=O)C(=O)NCCc2ccccc2)c2ccccc21", "Potency": "inconclusive: 28.2 µM [inhibitor, single point]"}
{"compound": "COc1cc(NC(=O)Cn2c(=O)n(Cc3ccccc3OC)c(=O)c3cccnc32)cc(OC)c1", "activity change, negative = inhibition": "inactive: -1.79%"}
{"compound": "O=C(NC(=S)Nc1ccccc1)c1cccs1", "Potency": "inconclusive: 17.8 µM [inhibitor, single point]"}
{"compound": "O=C(CSC1=NCCS1)N1CCN(c2ccc(Cl)cc2)CC1", "Potency": "inconclusive: 28.2 µM [inhibitor, single point]"}
{"compound": "CCC(C)(C)n1nnnc1CN(Cc1cc2cc(OC)ccc2[nH]c1=O)C1CCCC1", "Potency": "inconclusive: 10 µM [inhibitor, single point]"}
{"compound": "Cc1cc(SCC(=O)N/N=C/c2ccccc2C(=O)O)c(C)cc1Br", "activity change, negative = inhibition": "inactive: 5.69%"}
{"compound": "CCCC(=O)Nc1nc2ccc(S(=O)(=O)N3CCCCC3)cc2s1", "Potency": "inconclusive: 2.24 µM [inhibitor, full curve, poor fit]"}
{"compound": "O=C(NC(=S)N1CCCC1)c1ccccc1Cl", "Potency": "inconclusive: 10 µM [inhibitor, partial curve, poor fit]"}
{"compound": "CC(C)c1ccc(/C=N/NC(=O)c2cccc(Cl)c2)cc1", "Potency": "inconclusive: 4.47 µM [inhibitor, partial curve, poor fit]"}
{"compound": "CC(C)(C)OC(=O)N1CCC(CNC(=O)c2ccc(F)cc2F)CC1", "Potency": "inconclusive: 0.501 µM [inhibitor, full curve, poor fit]"}
{"compound": "Cc1ccccc1C(=O)Nc1nnc(-c2ccc(F)cc2)o1", "Potency": "inconclusive: 28.2 µM [inhibitor, single point]"}
